{"source": "the supplement of paper PMC4967469", "note": "A lower IC50 marks a more sensitive line; where the fit passes the top or lowest dose, that dose stands as a limit. The AUC spans the tested range (256-fold, ending at the top dose) of the same fit; values near 1 show little effect."}
{"compound": "COc1ccc(C2=N[C@@H](c3ccc(Cl)cc3)[C@@H](c3ccc(Cl)cc3)N2C(=O)N2CCNC(=O)C2)c(OC(C)C)c1 [Nutlin-3a]", "assay": "Viability of human cancer cell lines after 72 h of drug (GDSC screen)", "procedure": "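Human cancer cell lines in 384-well plates, medium with 10% serum, drug for 72 h over a 256-fold dose range (nine 2-fold or five 4-fold steps up to the top dose). Adherent lines were fixed and stained with the nucleic acid dye Syto60, suspension lines read with resazurin; signal relative to control wells, capped at 0 and 100%. One two-parameter sigmoid per drug and line, fitted in a mixed model over all curves with the slope shared within a line.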", "units": {"IC50": "µM"}}
{"cell line": "SCH (stomach, adherent, top dose 8 µM)", "AUC": 0.982, "IC50": "> 8"}
{"cell line": "SF126 (glioma, adherent, top dose 8 µM)", "AUC": 0.983, "IC50": "> 8"}
{"cell line": "SF268 (glioma, adherent, top dose 8 µM)", "AUC": 0.984, "IC50": "> 8"}
{"cell line": "SF295 (glioma, adherent, top dose 8 µM)", "AUC": 0.945, "IC50": "> 8"}
{"cell line": "SF539 (glioma, adherent, top dose 8 µM)", "AUC": 0.983, "IC50": "> 8"}
{"cell line": "SH-4 (melanoma, adherent, top dose 8 µM)", "AUC": 0.807, "IC50": 7.31}
{"cell line": "SHP-77 (small cell lung carcinoma, semi-adherent, top dose 8 µM)", "AUC": 0.842, "IC50": 4.78}
{"cell line": "SIMA (neuroblastoma, adherent, top dose 8 µM)", "AUC": 0.889, "IC50": "> 8"}
{"cell line": "SISO (cervix, adherent, top dose 8 µM)", "AUC": 0.988, "IC50": "> 8"}
{"cell line": "SJRH30 (rhabdomyosarcoma, adherent, top dose 8 µM)", "AUC": 0.975, "IC50": "> 8"}
{"cell line": "SK-CO-1 (large intestine, adherent, top dose 8 µM)", "AUC": 0.876, "IC50": 7.19}
{"cell line": "SK-ES-1 (Ewing sarcoma, semi-adherent, top dose 8 µM)", "AUC": 0.963, "IC50": "> 8"}
{"cell line": "SK-GT-2 (stomach, adherent, top dose 8 µM)", "AUC": 0.94, "IC50": "> 8"}
{"cell line": "SK-GT-4 (oesophagus, adherent, top dose 8 µM)", "AUC": 0.973, "IC50": "> 8"}
{"cell line": "SK-HEP-1 (liver, adherent, top dose 8 µM)", "AUC": 0.796, "IC50": 3.48}
{"cell line": "SK-LMS-1 (soft tissue, adherent, top dose 8 µM)", "AUC": 0.978, "IC50": "> 8"}
{"cell line": "SK-LU-1 (lung adenocarcinoma, adherent, top dose 8 µM)", "AUC": 0.902, "IC50": "> 8"}
{"cell line": "SK-MEL-1 (melanoma, suspension, top dose 8 µM)", "AUC": 0.978, "IC50": "> 8"}
{"cell line": "SK-MEL-2 (melanoma, adherent, top dose 8 µM)", "AUC": 0.985, "IC50": "> 8"}
{"cell line": "SK-MEL-3 (melanoma, adherent, top dose 8 µM)", "AUC": 0.983, "IC50": "> 8"}
{"cell line": "SK-MEL-5 (melanoma, adherent, top dose 8 µM)", "AUC": 0.833, "IC50": 6.87}
{"cell line": "SK-MEL-28 (melanoma, adherent, top dose 4 µM)", "AUC": 0.988, "IC50": "> 4"}
{"cell line": "SK-MEL-30 (melanoma, adherent, top dose 4 µM)", "AUC": 0.971, "IC50": "> 4"}
{"cell line": "SK-MEL-31 (melanoma, adherent, top dose 8 µM)", "AUC": 0.939, "IC50": "> 8"}
{"cell line": "SK-MES-1 (lung squamous cell carcinoma, adherent, top dose 8 µM)", "AUC": 0.963, "IC50": "> 8"}
{"cell line": "SK-MG-1 (glioma, adherent, top dose 8 µM)", "AUC": 0.986, "IC50": "> 8"}
{"cell line": "SK-MM-2 (myeloma, suspension, top dose 8 µM)", "AUC": 0.987, "IC50": "> 8"}
{"cell line": "SK-N-AS (neuroblastoma, adherent, top dose 8 µM)", "AUC": 0.984, "IC50": "> 8"}
{"cell line": "SK-N-FI (neuroblastoma, adherent, top dose 8 µM)", "AUC": 0.983, "IC50": "> 8"}
{"cell line": "SK-N-SH (neuroblastoma, adherent, top dose 8 µM)", "AUC": 0.706, "IC50": 1.89}
{"cell line": "SK-OV-3 (ovary, adherent, top dose 8 µM)", "AUC": 0.979, "IC50": "> 8"}
{"cell line": "SK-PN-DW (Ewing sarcoma, adherent, top dose 8 µM)", "AUC": 0.914, "IC50": "> 8"}
{"cell line": "SK-UT-1 (soft tissue, adherent, top dose 4 µM)", "AUC": 0.989, "IC50": "> 4"}
{"cell line": "SKG-IIIa (cervix, adherent, top dose 8 µM)", "AUC": 0.983, "IC50": "> 8"}
{"cell line": "SKM-1 (haematopoietic neoplasm, suspension, top dose 8 µM)", "AUC": 0.848, "IC50": 6.92}
{"cell line": "SKN (uterus, adherent, top dose 8 µM)", "AUC": 0.948, "IC50": "> 8"}
{"cell line": "SKN-3 (head and neck, adherent, top dose 8 µM)", "AUC": 0.965, "IC50": "> 8"}
{"cell line": "SLVL (B-cell lymphoma, suspension, top dose 8 µM)", "AUC": 0.918, "IC50": "> 8"}
{"cell line": "SNB75 (glioma, adherent, top dose 8 µM)", "AUC": 0.979, "IC50": "> 8"}
{"cell line": "SNG-M (endometrium, adherent, top dose 8 µM)", "AUC": 0.788, "IC50": 3.44}
{"cell line": "SNU-61 (large intestine, adherent, top dose 8 µM)", "AUC": 0.985, "IC50": "> 8"}
{"cell line": "SNU-81 (large intestine, adherent, top dose 8 µM)", "AUC": 0.967, "IC50": "> 8"}
{"cell line": "SNU-182 (liver, adherent, top dose 8 µM)", "AUC": 0.985, "IC50": "> 8"}
{"cell line": "SNU-387 (liver, adherent, top dose 8 µM)", "AUC": 0.984, "IC50": "> 8"}
{"cell line": "SNU-407 (large intestine, adherent, top dose 8 µM)", "AUC": 0.854, "IC50": "> 8"}
{"cell line": "SNU-423 (liver, adherent, top dose 8 µM)", "AUC": 0.983, "IC50": "> 8"}
{"cell line": "SNU-449 (liver, adherent, top dose 8 µM)", "AUC": 0.985, "IC50": "> 8"}
{"cell line": "SNU-C1 (large intestine, suspension, top dose 8 µM)", "AUC": 0.934, "IC50": "> 8"}
{"cell line": "SNU-C2B (large intestine, adherent, top dose 8 µM)", "AUC": 0.928, "IC50": "> 8"}
{"cell line": "SNU-C5 (large intestine, adherent, top dose 8 µM)", "AUC": 0.986, "IC50": "> 8"}
{"cell line": "SR (lymphoid neoplasm, suspension, top dose 8 µM)", "AUC": 0.669, "IC50": 1.4}
{"cell line": "ST486 (Burkitt lymphoma, suspension, top dose 8 µM)", "AUC": 0.982, "IC50": "> 8"}
{"cell line": "STS-0421 (soft tissue, adherent, top dose 8 µM)", "AUC": 0.812, "IC50": 5.18}
{"cell line": "SU8686 (pancreas, adherent, top dose 4 µM)", "AUC": 0.983, "IC50": "> 4"}
{"cell line": "SU-DHL-4 (B-cell lymphoma, suspension, top dose 8 µM)", "AUC": 0.997, "IC50": "> 8"}
{"cell line": "SU-DHL-5 (B-cell lymphoma, suspension, top dose 8 µM)", "AUC": 0.795, "IC50": 2.74}
{"cell line": "SU-DHL-6 (B-cell lymphoma, suspension, top dose 8 µM)", "AUC": 0.99, "IC50": "> 8"}
{"cell line": "SU-DHL-8 (B-cell lymphoma, suspension, top dose 8 µM)", "AUC": 0.988, "IC50": "> 8"}
{"cell line": "SU-DHL-10 (B-cell lymphoma, suspension, top dose 8 µM)", "AUC": 0.998, "IC50": "> 8"}
{"cell line": "SU-DHL-16 (B-cell lymphoma, suspension, top dose 8 µM)", "AUC": 0.991, "IC50": "> 8"}
{"cell line": "SUIT-2 (pancreas, adherent, top dose 4 µM)", "AUC": 0.932, "IC50": "> 4"}
{"cell line": "SUP-B8 (B-cell leukaemia, suspension, top dose 8 µM)", "AUC": 0.982, "IC50": "> 8"}
{"cell line": "SUP-B15 (lymphoblastic leukaemia, suspension, top dose 8 µM)", "AUC": 0.639, "IC50": 1.19}
{"cell line": "SUP-HD1 (Hodgkin lymphoma, suspension, top dose 8 µM)", "AUC": 0.772, "IC50": 2.94}
{"cell line": "SUP-M2 (anaplastic large cell lymphoma, suspension, top dose 8 µM)", "AUC": 0.795, "IC50": 2.76}
{"cell line": "SUP-T1 (T-cell lymphoblastic leukaemia, suspension, top dose 8 µM)", "AUC": 0.977, "IC50": "> 8"}
{"cell line": "SW13 (adrenal gland, adherent, top dose 4 µM)", "AUC": 0.987, "IC50": "> 4"}
{"cell line": "SW48 (large intestine, adherent, top dose 8 µM)", "AUC": 0.92, "IC50": "> 8"}
{"cell line": "SW626 (ovary, adherent, top dose 8 µM)", "AUC": 0.984, "IC50": "> 8"}
{"cell line": "SW684 (fibrosarcoma, adherent, top dose 8 µM)", "AUC": 0.981, "IC50": "> 8"}
{"cell line": "SW756 (cervix, adherent, top dose 8 µM)", "AUC": 0.982, "IC50": "> 8"}
{"cell line": "SW780 (bladder, adherent, top dose 8 µM)", "AUC": 0.745, "IC50": 2.72}
{"cell line": "SW900 (lung squamous cell carcinoma, adherent, top dose 4 µM)", "AUC": 0.895, "IC50": "> 4"}
{"cell line": "SW948 (large intestine, adherent, top dose 8 µM)", "AUC": 0.977, "IC50": "> 8"}
{"cell line": "SW954 (urogenital system, adherent, top dose 8 µM)", "AUC": 0.78, "IC50": 3.33}
{"cell line": "SW962 (urogenital system, adherent, top dose 8 µM)", "AUC": 0.958, "IC50": "> 8"}
{"cell line": "SW982 (soft tissue, adherent, top dose 8 µM)", "AUC": 0.794, "IC50": 3.8}
{"cell line": "SW1271 (small cell lung carcinoma, adherent, top dose 8 µM)", "AUC": 0.982, "IC50": "> 8"}
{"cell line": "SW1417 (large intestine, adherent, top dose 8 µM)", "AUC": 0.958, "IC50": "> 8"}
{"cell line": "SW1573 (lung adenocarcinoma, adherent, top dose 8 µM)", "AUC": 0.907, "IC50": "> 8"}
{"cell line": "SW1710 (bladder, adherent, top dose 8 µM)", "AUC": 0.982, "IC50": "> 8"}
{"cell line": "SW1783 (glioma, adherent, top dose 8 µM)", "AUC": 0.991, "IC50": "> 8"}
